Source: the RNAGym collection of RNA variant scans (doi:10.7554/elife.90254)
Read counts are not given, so values of variants with three or more changes are uncertain.

B1: OR4K15 (parent)
chain: GUUAACGGUCAUAGGCCAUGGAAACUAGGAGCACCAUUUCGCUGCCAGUGAAGAAAUGAACAAAGAAAAUCUGGGCCAGGCAGGCAUCAAAAGAAAUAGUCUUGCGCUCAACCAGAAAGUCUGUAAUCAUUUUAAGGGUA

Variants of: B1
Assay: self-cleavage, relative activity (ratio to wild type); higher = more cleavage; in vitro, sequencing; the parent is a self-cleaving ribozyme

Variant | self-cleavage
A60G U70C A118G | 0.39
A62G A64G A67G A118G A135G | 0.62
A60U A116U U127C | 0.04
A60G A94U A116G | 0.62
A60G A64G A91G A118G | 0.23
A59U C81A A95G U108C | 0.02
A59G A66G A89G A118U | 0.4
A59G A117G U139A | 0.91
U57C A66U U100C | 1.77
A60C A86G U122C U130A | 0.82
A60U C105U U139G | 0.31
A59G A90G U108C | 0.03
A56G A78G A96C U103C | 0.06
A59G G74A U100C A140G | 0.35
U57C A78G U102C | 0.24
A59U U87C A116G | 0.76
A59G U70C A82U | 0.15
U57C A89U A92G U122C | 1.1
A56G A91G A117G U130C | 0.78
U57C A118G U120A | 1.79
A59G A111C A114U | 0
A60U G104A A114U U130A | 0.01
A59G A94G A111G | 0.02
U57A G79A A110G | 0.03

Variant | self-cleavage
U57C A82G A96G | 0.31
A60G U87C A114U | 0.02
A60C U87C A111G | 0.03
A59G A67G U87C | 1.34
A60G G80A G138C | 0.19
A60G C76G G99A U122A | 0.09
A59G A95G A98U U108C | 0
A60G U87C A96G U100C U131C | 2.47
U57C A67G U120C | 0.37
G58U A68G A95U U102C | 2.26
U57A A59G A63G A114G | 0.32
A60G A64C U72C A94G A118U | 0.05
C61U A67G A86U | 1.41
A56G C107A A135G | 0.01
A59G A91G A110G U120C | 0.04
U57C A64G A135G | 0.82
A59G U70C A89U | 0.51
A59G A78G U108C A116G U120C | 0
A59U A94G U108C A116G | 0.05
U57A U87A A91G | 0.83
A60G A68G A118G | 0.68
A60U U70C U108C | 0.02
A62G A67G U70C | 0.97
A56G A95G U100A | 1.36

Variant | self-cleavage
A59G A89U U120C A135G | 0.49
A59U A86G A96G C121U | 0.93
U57A A86G U103C | 1.03
A60U G75U A94G | 0.16
A59G U87C A89G | 0.73
A59U A78G A86G | 0.14
A56G U97C A110U U131C | 0.53
A60G A63G G74A G136A | 0
A59G U87C A92G U100C A114U | 0.05
U57C A86G U120C A135G | 0.42
A59G A91G C101A U132A | 0.03
A60G A67U U120A | 0.8
A60G A62G U120C | 0.48
A56G U102C A140G | 1.71
A62C A64G A68G C81U A129G | 0.17
A60G A63U U127C G137A | 0.94
A59G U72C A82U A98C U130C | 0.08
A60U U103A A129C | 0.6
A59G U70C U72C A110G | 0.13
A62G A63G U70C U139A | 0.7
A60G A89G A114G | 0.64
A56U A78U A95G A129G | 0.67
A60G A62G G106A | 0.03
A60G U108C U122A | 0

Variant | self-cleavage
A60G A67U A69G | 1.45
A59G U102C U139C | 2.46
A60G A82G U103C C109A | 0.58
A62G A67G U72A A117U | 0.17
C61U A69G U87C | 1.21
A56G A92G G119A A129G | 2.49
A62G A66G A90G | 0.82
A60G U122G A126U | 1.75
A56G U122C A126G | 0.96
A59G A82U A90G A111G U120C | 0.01
U57C U102A A134G | 0.43
A59G A62G U132A | 1.13
A59U U139A A140G | 1.36
A56G U70G A78U | 0.1
G58U A69G A90G U120C A140G | 0.3
A56G G106A A140G | 0.01
A56G U108C U120C | 0.01
A59G A60G U72G | 0.37
A59G G75A A96G | 0.21
A60U A63G A86G A91G | 0.08
A56G A67G A89G | 1.12
A56G A92C A94G A116U A118G | 0.19
C61U A69G U70A | 0.93
A56G A86G U87A | 1.39

Variant | self-cleavage
A56G A86G U87G | 1.34
A56G A67G G75C A95G U120C | 0.19
A60G U87A A96G | 1.83
G58A A69U G83A A117G | 2.27
U57C A63U A68G A110C | 0.08
A56G A118U U124C | 0.34
A56G U102C U103C U132C | 0.11
A60G A96G U122C | 1.28
C61U A91G A117G | 2.1
A56G A68G C77A | 1.02
A60U A116G U130C | 0.51
A56G U108A U122C | 0
A59G A78G A82G | 0.17
C61U A66G A68G | 1.3
A56G U102A U130C | 0.97
U57G C61U A118G U130C | 1.04
U57C A96G A111G | 0.02
A60G U108C A118U | 0
A59G A78U U132C | 0.61
A56U A59G A66G A118G | 0.32
A62G A68G C81U A89G U131C | 0.08
A56G U87C A90U U120C A140G | 0.2
U57C A129C U130C | 0.87
A60G A94G U102C | 1.44

Variant | self-cleavage
U57C A60G A82U A89U U139C | 0.22
U57C C105U A114G | 0.02
A56G U70C A110C | 0.15
A60G A114G A126G | 0.31
A56G A92G U122C | 1.06
A56G U70C A91G | 0.51
G58A A98G A118G | 0.07
A56G A78G A118G | 0.1
U57A A63G U72C A95G | 0.2
U57C A59G U70C | 0.24
A60U A68G A78G A111G A118G A125G | 0.01
A56U U57G G58A A60C C61A A64G G65A U122C | 0.66
A56G A78G U102C | 0.26
A60G A68G A96G A118G U130C | 0.53
A59G A62G G79U U102A | 0.13
A59G C61U U87A U108C | 0.03
A59G A68U A91U A117G | 1.83
A59G A60G A92G | 1.47
U57C A64G A89G A96G A111G | 0.02
A59G C109U A135G | 0.15
U57C A64G A111U A140G | 0.04
U57C A110G A114C | 0.02
A60G A62G U103C | 0.55
U57C A68G G137U | 0.96

Variant | self-cleavage
G58U A64G U70C U122C | 0.3
A59G A69G A135G A140G | 1.33
U57C A86G A89G U108C | 0
A56G U87C U108C | 0.02
A60G A90G U127A | 0.89
U57C A64G A96G | 1.58
A56G A67G U102C U132C | 0.95
U57A C85A A118G A135G | 0.93
A60U A69G U72C G115A | 0.04
A60G A82G U87C G137A | 0.22
U57G A92G C105A | 0.07
U57C A96G U103A | 0.17
U57A A96G A118G U132C | 0.36
U57C A66G U108A | 0.02
A60G U72C C105U | 0.02
A59G C128A U132A | 0.9
A60G A66G A69G | 0.83
A62G A68U U127C | 0.95
A59G A60U A82G U102C | 1.24
A62G A66G A86U | 1.64
A60G A118U A126G | 0.21
A56G A82U U122C G138C | 0.11
A59G A91G A126G | 1.18
